Values quoted from earlier work, collected in patent US11992011B2, “Compounds for controlling plant pathogens” (VIB VZW, priority 2017, dated 2024).

Test system: Arabidopsis thaliana seedlings
Conditions: continuous exposure to 10 μM; five day old seedlings; Van de Wouwer et al., 2016; cited from earlier work

O=C(O)c1ccc(I)cc1 [Formula 4-IBA, 4-iodobenzoic acid]
increase of the number of non-lignified endodermal cells in the Casparian strip region: 57%
